# Reference: PubChem BioAssay AID686978 (National Center for Advancing Translational Sciences (NCATS), 2013)
# The campaign covered roughly 420,000 compounds. About 64,000 (15%) were called active. The inconclusive results got no clear call from the source; some entries with a clear call stand among them for comparison. The call rests on the fitted dose curve; in most records, active means well fitted inhibition curve with a large enough effect; inconclusive means small, poorly fitted or top-dose-only effect; inactive means flat fitted curve, though single readings scatter. No potency is given beside an inconclusive call; the fits are too rough.
# Test: qHTS for Inhibitors of human tyrosyl-DNA phosphodiesterase 1 (TDP1): qHTS in cells in absence of CPT; further: nearly all actives have a fitted effect of over 55% in size
# Details: DT40 Tdp1-/- hTDP1 cells, no CPT, ATP luminescence, 48 h; activity change, negative = growth inhibition: at 46.2 µM (top of the series)
# Method in brief: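 Chicken DT40 Tdp1-/- cells complemented with human TDP1, screened without camptothecin (DMSO vehicle only), 400 cells/well. Compounds pin-transferred, cells incubated at 37 °C for at least 48 hr. Growth read as ATP-dependent luminescence (CellTiter-Glo, 30 min at RT).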
# On the % scale 0 is the no-effect control and ±100 the full control effect; potency means the concentration at half of the fitted maximal effect; tags describe the fitted curve by direction and shape.
SMILES,Potency,"activity change, negative = growth inhibition"
CCOC(=O)c1c(NC(=O)COc2ncnc3ccccc23)sc(C)c1CC,"inconclusive [inhibitor, single point]",–
C=C1CC[C@H](O)CC1=C/C=C1\CCC[C@]2(C)[C@@H]([C@H](C)CC[C@@H](O)C(C)(C)O)CC[C@@H]12,active: 23.7 µM,–
CCOc1ccc2[nH]c(=O)c(CN(Cc3ccco3)C(=O)c3cccc(F)c3)cc2c1,active: 23.1 µM,–
CC(C)c1cc(C(N)=O)c(NC(=O)c2cccc(COc3ccc(Br)cc3)c2)s1,"inconclusive [inhibitor, single point]",–
CCOC(=O)CNC(=O)N1CCc2ccc(NC(=O)c3ccccc3OC)cc2C1,"inconclusive [inhibitor, single point]",–
CN(c1ccc(F)cc1)S(=O)(=O)c1ccc(Cl)c(C(=O)NCc2ccco2)c1,"inconclusive [inhibitor, single point]",–
O=C(Nc1ccc(F)cc1)N[C@H]1CC[C@H](CCNS(=O)(=O)c2cccc(Cl)c2)O[C@@H]1CO,"inconclusive [inhibitor, partial curve, poor fit]",–
CCCn1c(NCc2ccco2)nc2c1c(=O)n(C)c(=O)n2C,active: 13 µM,–
COc1cccc(NC(=O)Nc2ccc(F)cc2)c1,"inconclusive [inhibitor, single point]",–
CCc1noc(-c2ccc(N(C)Cc3ccc(OC)cc3)c([N+](=O)[O-])c2)n1,active: 5.8 µM,–
CCOc1ccc(CCNC(=O)c2sc3ncccc3c2-n2c(C)ccc2C)cc1,active: 14.6 µM,–
CN(C)c1nc2sc3c(c2c(=O)n1C)CC(C)(C)OC3,"inconclusive [inhibitor, single point]",–
COc1ccc([N+](=O)[O-])cc1NS(=O)(=O)c1ccccc1,inactive,–
COC(=O)c1c(NC(=O)c2cc3nc(-c4ccc(Br)cc4)cc(C(F)(F)F)n3n2)sc2c1CCCC2,"inconclusive [inhibitor, single point]",–
COC(=O)c1sccc1NC(=O)Nc1cccc(C)c1,inactive,–
CC1CCN(C(=O)c2[nH]cnc2C(=O)Nc2ccc(Cl)cc2)CC1,"inconclusive [inhibitor, single point]",–
Cc1ccc(C)c(NC(=O)COc2coc(CN3CCc4ccccc4C3)cc2=O)c1,active: 16.4 µM,–
CS(=O)(=O)c1ccc(Cl)c(NC(=O)C2CCCCN2S(=O)(=O)c2ccccc2)c1 (stereo unspecified),"inconclusive [inhibitor, single point]",–
Cc1ccc(-c2nn(-c3ccc(F)cc3)cc2C(=O)NCC2CCCO2)cc1 (stereo unspecified),"inconclusive [inhibitor, single point]",–
CC1(C)SC2c3ccccc3C(=O)N2C1C(=O)O (stereo unspecified),inactive,–
CC(NC(=O)c1ccc2nc(Cc3ccccc3)oc2c1)c1ccccc1 (stereo unspecified),"inconclusive [inhibitor, single point]",–
Cc1cc(=O)n(CC(=O)Nc2cccc([N+](=O)[O-])c2)c(-n2nc(C)cc2C)n1,"inconclusive [inhibitor, single point]",–

SMILES,Potency,"activity change, negative = growth inhibition"
COc1ccc(NC(=O)Cn2cc(C(=O)C3CCCCC3)c3ccccc32)cc1,"inconclusive [inhibitor, single point]",–
CCCN1CCc2c(sc(NC(=O)c3ccc(S(=O)(=O)N4CCN(C(=O)OCC)CC4)cc3)c2C(N)=O)C1,"inconclusive [inhibitor, single point]",–
O=C(C(=O)N1CCN(c2ccccc2)CC1)c1ccccc1,inactive,–
Cc1c(Cl)cccc1NC(=O)C(=O)NCC(c1cccnc1)N1CCN(c2ccccc2)CC1 (stereo unspecified),active: 20.6 µM,–
C=C(C)CNC(=S)NN=C1c2ccccc2-c2ccccc21,"inconclusive [inhibitor, single point]",–
COc1ccc2c(c1)OC/C(=C/c1cccs1)C2=O,"inconclusive [inhibitor, single point]",–
O=S(=O)(NCCN1CCOCC1)c1ccc(Oc2ccccc2Cl)cc1,"inconclusive [inhibitor, single point]",–
CC1CCN(c2ccc(NC(=O)c3ccc(Br)o3)cc2)CC1,inactive,–
Cc1ccc(C(C)NC(=O)C23CC4CC(CC(C4)C2)C3)cc1 (stereo unspecified),–,inconclusive: -32.6% [inhibitor]
O=C1[C@H]2CCC=C[C@H]2[C@H](c2ccccc2Br)N1Cc1ccccc1,"inconclusive [inhibitor, single point]",–
Cc1oc(-c2ccccc2Cl)nc1CS(=O)CC(=O)NCc1ccccc1Cl (stereo unspecified),"inconclusive [inhibitor, single point]",–
O=C(CSc1nnnn1-c1ccccc1)N1N=CCC1c1ccccc1 (stereo unspecified),inactive,–
O=C(Nc1cc(=O)[nH]c(=O)[nH]1)c1cc(Cl)ccc1Cl,active: 4.11 µM,–
Cc1nc(-c2ccc(NC(=O)Cc3ccccc3)cc2)cs1,"inconclusive [inhibitor, single point]",–
COc1ccccc1C(=O)Nc1c[nH]c(=O)[nH]c1=O,"inconclusive [inhibitor, partial curve, poor fit]",–
CCN(Cc1ccccc1)c1ccc(/C=C(\C#N)c2ccccn2)cc1,"inconclusive [inhibitor, partial curve]",–
CCOC(=O)c1ccc(N2CC(O)=C(c3nc4ccccc4c(=O)[nH]3)C2=N)cc1,active: 10.3 µM,–
Fc1cccc(Cc2noc(CN3CCN(C4CCc5ccccc5C4)CC3)n2)c1 (stereo unspecified),"inconclusive [inhibitor, single point]",–
Nc1c(Cl)cc(-c2csc(N3CCCC3c3nc4cc(Cl)c(N5CCCCC5)cc4n3CCCO)n2)cc1Cl (stereo unspecified),"inconclusive [inhibitor, single point]",–
COc1ccc(N=C2C(=Nc3ccc(OC)cc3)N(c3ccc(OC)cc3)C(=S)N2c2ccccc2)cc1,active: 18.4 µM,–
O=C(Nc1ccnn1C1CCN(C(=O)CCc2ccc(F)cc2)CC1)C1CCOC1 (stereo unspecified),inactive,–
Cc1ccc(C(=O)NCCSCc2ccc(Cl)cc2Cl)cc1[N+](=O)[O-],"inconclusive [inhibitor, partial curve]",–

SMILES,Potency,"activity change, negative = growth inhibition"
COc1ccc(C2Nc3ccccc3C(=O)N2c2ccc(F)cc2)cc1Cn1nnc2ccccc21 (stereo unspecified),"inconclusive [inhibitor, partial curve, poor fit]",–
Cc1csc(NC(C)c2nc3cc(Cl)c(Cl)cc3n2CCCO)n1 (stereo unspecified),inactive,–
CCOC(=O)N1CCN(S(=O)(=O)c2ccc(C(=O)N(CCN(CC)CC)c3nc4c(C)cccc4s3)cc2)CC1,inactive,–
COc1ccccc1N(Cc1ccccc1)S(=O)(=O)c1cccc(C(=O)Nc2cc(C)ccn2)c1,active: 25.9 µM,–
Cc1ccc2[nH]c(C)c(CCNC(=O)c3c(N)no[n+]3[O-])c2c1,"inconclusive [inhibitor, partial curve]",–
Cc1cc(Cl)ccc1C(O)c1ncc(-c2ccc3ccccc3c2)[nH]1 (stereo unspecified),"inconclusive [inhibitor, single point]",–
C#CCOCCOCCOCCNc1nc(N2CCN(C(=O)CCCCCCCCCCNC(=O)[C@H]([C@@H](C)CC)n3cc(CCCCCN)nn3)CC2)nc(N2CCN(C(=O)CCCCCCCCCCNC(=O)[C@H](CO)n3cc(CCCCCN)nn3)CC2)n1,"inconclusive [inhibitor, single point]",–
O=C(O)Cc1ccc2c(c1)N(S(=O)(=O)c1cccc(C(F)(F)F)c1)CC(C(=O)O)O2 (stereo unspecified),inactive,–
CCOC(=O)c1c(-c2ccncc2)csc1N,"inconclusive [inhibitor, single point]",–
CCOC(=O)c1ccc(NC(=O)COc2cccc3c(=O)n(C)ccc23)cc1,active: 18.4 µM,–
O=C(CCCCC(=O)NN=Cc1ccccc1O)NN=Cc1ccccc1O,active: 5.8 µM,–
O=S(=O)(c1ccc(F)cc1)N(Cc1nc(-c2ccccc2)no1)C1CCCCC1,active: 16.4 µM,–
O=C(Nc1nnc(-c2ccc3c(c2)CCCC3)o1)c1ccccc1,active: 5.8 µM,–
Cc1nc2scc(-c3cccs3)c2c(=O)n1-n1cccc1,"inconclusive [inhibitor, partial curve, poor fit]",–
CCOC(=O)C1=C(CSc2nc3ccccc3s2)NC(=O)NC1c1cc(C)ccc1C (stereo unspecified),active: 23.1 µM,–
CC1CCN(S(=O)(=O)c2ccc(C(=O)Nc3ccccc3-c3nc4ccccc4[nH]3)cc2)CC1,"inconclusive [inhibitor, single point]",–
CCN(CC(F)(F)C(F)F)S(=O)(=O)c1ccc(NC(=O)OC)cc1,active: 16.4 µM,–
CCOc1ccc(NC(=O)N2CCC(c3ccc(C)cc3)C2)cc1 (stereo unspecified),"inconclusive [inhibitor, single point]",–
Cc1ccc2oc(-c3cccc(NC(=S)NC(=O)c4cccs4)c3)nc2c1,"inconclusive [inhibitor, single point]",–
CCOc1ccc(CN(C)C(=O)CNC(=O)c2sc3ccccc3c2Cl)cc1,"inconclusive [inhibitor, single point]",–
C#CCCOC(=O)N1C2=NC(C(=O)OC)=C(C(=O)OC)[C@@H]3N(Cc4ccccc4)c4ccccc4[C@]23C[C@H]1C(=O)OC,"inconclusive [inhibitor, single point]",–
Cc1ccc(CN(Cc2cccn2-c2nnc(N3CCCC3=O)s2)C(=O)Nc2ccc(F)cc2)cc1,"inconclusive [inhibitor, single point]",–
